For part of its entries the source gives two or more results. The other results are left out here. There may be further records. Results that share an entry are repeats across runs, samples, wells, individuals or studies. Additions like (4×) stand for listed records that agree.
Test system: SYO-1 tumor spheroids, viability % test/control
Experiment: Anticancer human tumor SYO-1 cell line growth inhibition;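 also: spheroids exposed to agents for 7 days before viability read; 100% = DMSO vehicle control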
Details: stronger effect = lower value, spheroids with HUVEC and MSC
Description: Multicellular complex tumor spheroid response to DNA repair inhibitors in combination with DNA-damaging drugs
This study explores the anticancer activities of DNA-damaging drugs and inhibitors of DNA damage repair, both as single agents and in combinations. Complex tumor spheroids comprised of malignant cells, endothelial cells and mesenchymal stem cells served as an in vitro model for human solid tumors. This model system incorporates physiologically relevant features and patient-derived or established malignant cell lines with clinically relevant genetic alterations from many tumor types. Twenty-six patient-derived or established malignant cell lines were evaluated representing sarcoma, melanoma, small cell lung cancer (SCLC), non-small cell lung cancer (NSCLC), as well as bladder, ovarian and pancreatic cancers. The concentration ranges selected for each drug and investigational agent were based upon clinically achievable concentrations if the clinical Cmax of the agent was known.
Compounds. The drugs and compounds olaparib (NSC753686), talazoparib (NSC767125), berzosertib (NSC777718), elimusertib (NSC800525), nedisertib (NSC802822), VX-984 (NSC792969), AZD-1390 (NSC803789), temozolomide (NSC362856), topotecan (NSC609699), trabectedin (NSC813783), staurosporine (NSC755774), and gemcitabine (NSC613327) were obtained from the National Cancer Institute (NCI) Developmental Therapeutics Program Chemical Repository. The FDA-approved anticancer drug set is available from the Developmental Therapeutics Program at https://dtp.cancer.gov/organization/dscb/obtaining/available_plates.htm. […] The stock solutions were prepared in dimethyl sulfoxide (DMSO, Sigma-Aldrich, St. Louis, MO, cat. D2650) at 400-fold the tested concentration and stored at -70 degrees C. Prior to their use, the stock solutions were diluted in fresh medium and the final DMSO concentration in the assay was 0.25% (v/v). All drugs and investigational agents were tested over a range starting from a high concentration at or near the clinical Cmax and decreasing in half-log increments. If the clinical Cmax for an agent had not been determined, the highest concentration tested was 10 microM.
Cell Lines. The patient-derived cancer cell (PDC) lines: 156681-154-R-J1-PDC, 283228-195-R-J1-PDC, 287954-098-R-J1-PDC, 292921-168-R-J2-PDC, 349418-098-R-PDC, 425362-245-T-J1-PDC, 556581-035-R-J1-PDC, and BL0293-F563-PDC were received from the NCI Patient-Derived Models Repository (PDMR, https://pdmr.cancer.gov). The established cell lines HS-SY-2 (RRID:CVCL_8719), MPNST, and SYO-1 (RRID:CVCL_7146) were obtained from the Sloan Kettering Institute. The alveolar soft parts sarcoma cell line ASPS-1 (RRID:CVCL_S738) was established at the NCI and grown from internal seed stocks. […]

## CC1COCCN1c1cc(-c2ccnn2C)c2ccnc(-c3ccn[nH]3)c2n1 (centres undefined)
Compound alone 0.0316 µM
  viability, T/C: 47.1%, 50.7%, 9.73%

## Cn1nnc2c(C(N)=O)ncn2c1=O
Compound alone 100 µM
  viability, T/C: 103, 105, 113, 44.1, 107 (2×), 109, 108, 111% (2×)

## COc1cc2c(cc1O)CCNC21CSC2c3c(OC(C)=O)c(C)c4c(c3C(COC1=O)N1C(O)C3Cc5cc(C)c(OC)c(O)c5C(C21)N3C)OCO4 (centres undefined)
Compound 94.9 pM
  viability, T/C: 95.3, 96.7, 99.1, 88.1, 96.4, 91.4, 94.7, 72.5, 94.8, 97.4%

## CC[C@@]1(O)C(=O)OCc2c1cc1n(c2=O)Cc2cc3c(CN(C)C)c(O)ccc3nc2-1
Compound alone 0.00949 µM
  viability, T/C: 10.3, 7.39, 35.6, 17, 13.9, 30.3, 32.3, 22.4, 28.5, 27.9%

Source: PubChem BioAssay AID1845219 (Molecular Pharmacology Branch, DTP, NCI, 2023)
